{"source": "paper PMC5379148", "about": "“A phase I study of intravenous and oral rucaparib in combination with chemotherapy in patients with advanced solid tumours” (British Journal of Cancer, 2017)", "system": "patients with advanced solid tumours", "conditions": "treatment-emergent, any grade; All patients (N=85), all arms"}
{"smiles": "CNCc1ccc(-c2[nH]c3cc(F)cc4c3c2CCNC4=O)cc1", "note": "[rucaparib]", "values": [{"measurement": "Abdominal pain", "result": "19 (22.4) n (%)"}, {"measurement": "Abdominal pain upper", "result": "8 (9.4) n (%)"}, {"measurement": "Alopecia", "result": "15 (17.6) n (%)"}, {"measurement": "Anaemia", "result": "34 (40.0) n (%)"}, {"measurement": "Arthralgia", "result": "11 (12.9) n (%)"}, {"measurement": "Asthenia", "result": "4 (4.7) n (%)"}, {"measurement": "Back pain", "result": "15 (17.6) n (%)"}, {"measurement": "Constipation", "result": "42 (49.4) n (%)"}, {"measurement": "Cough", "result": "16 (18.8) n (%)"}, {"measurement": "Decreased appetite", "result": "23 (27.1) n (%)"}, {"measurement": "Diarrhoea", "result": "33 (38.8) n (%)"}, {"measurement": "Dyspepsia", "result": "12 (14.1) n (%)"}, {"measurement": "Dyspnoea", "result": "19 (22.4) n (%)"}, {"measurement": "Epistaxis", "result": "6 (7.1) n (%)"}, {"measurement": "Fatigue", "result": "53 (62.4) n (%)"}, {"measurement": "Headache", "result": "19 (22.4) n (%)"}, {"measurement": "Influenza-like illness", "result": "4 (4.7) n (%)"}, {"measurement": "Insomnia", "result": "9 (10.6) n (%)"}, {"measurement": "Nausea", "result": "58 (68.2) n (%)"}, {"measurement": "Neutropenia", "result": "34 (40.0) n (%)"}, {"measurement": "Oral candidiasis", "result": "11 (12.9) n (%)"}, {"measurement": "Pyrexia", "result": "14 (16.5) n (%)"}, {"measurement": "Tachycardia", "result": "6 (7.1) n (%)"}, {"measurement": "Thrombocytopenia", "result": "29 (34.1) n (%)"}, {"measurement": "Vomiting", "result": "38 (44.7) n (%)"}]}
